No constants are given. Whether binding was seen depends on the method and setting. Binding seen in cells or lysates may run through a third protein. Some binding calls cover weakened binding; strength is not graded here. For some assays here: Tags and fused reporters may be left off the sequences shown. Each block holds one molecule with its values, some of them ahead of it.
Experiments:
[1] = molecular target: T1, HA-ΔC-LAPTM4b (amino acids 1–181) (human) (UniProt Q86VI4); test: co-IP; HeLa cells co-transfected; IP of HA-LAPTM4b (wild type or ΔN, ΔC, ΔNΔC) with anti-HA antibody coupled to Protein G Sepharose, immunoblot with anti-mCherry (SNAT2, ASCT2) or anti-FLAG (4F2hc)
T1 sequence: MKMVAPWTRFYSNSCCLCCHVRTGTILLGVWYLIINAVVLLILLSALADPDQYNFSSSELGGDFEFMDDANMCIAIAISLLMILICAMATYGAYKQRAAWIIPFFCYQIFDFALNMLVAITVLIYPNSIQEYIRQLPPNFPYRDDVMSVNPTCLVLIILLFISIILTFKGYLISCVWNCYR

By UniProt entry, the sequences of proteins in these tests, tags left out.
UniProt Q01650: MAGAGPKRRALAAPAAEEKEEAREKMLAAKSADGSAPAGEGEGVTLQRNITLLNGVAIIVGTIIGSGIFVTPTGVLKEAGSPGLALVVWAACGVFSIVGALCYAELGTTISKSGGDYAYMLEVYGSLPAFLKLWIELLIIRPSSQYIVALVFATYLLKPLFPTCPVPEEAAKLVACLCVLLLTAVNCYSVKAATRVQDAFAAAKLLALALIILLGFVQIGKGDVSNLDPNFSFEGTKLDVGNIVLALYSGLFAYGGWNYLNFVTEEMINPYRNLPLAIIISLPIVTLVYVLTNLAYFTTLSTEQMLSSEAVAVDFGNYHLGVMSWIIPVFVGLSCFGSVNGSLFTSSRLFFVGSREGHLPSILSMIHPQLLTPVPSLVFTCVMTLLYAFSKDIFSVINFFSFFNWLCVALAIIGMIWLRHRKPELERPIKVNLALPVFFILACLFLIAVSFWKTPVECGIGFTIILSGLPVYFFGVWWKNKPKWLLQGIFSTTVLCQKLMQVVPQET

[2] = molecular target: T2, HA-ΔN-LAPTM4b (amino acids 21–226) (human) (UniProt Q86VI4); test: as above
T2 sequence: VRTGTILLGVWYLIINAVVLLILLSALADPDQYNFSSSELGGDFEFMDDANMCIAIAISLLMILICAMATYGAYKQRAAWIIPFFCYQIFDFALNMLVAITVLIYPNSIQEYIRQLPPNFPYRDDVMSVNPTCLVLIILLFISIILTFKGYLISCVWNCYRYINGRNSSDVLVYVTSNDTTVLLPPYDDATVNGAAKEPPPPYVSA

[3] = molecular target: T3, HA-ΔNΔC-LAPTM4b (amino acids 21–181) (human) (UniProt Q86VI4); test: as above
T3 sequence: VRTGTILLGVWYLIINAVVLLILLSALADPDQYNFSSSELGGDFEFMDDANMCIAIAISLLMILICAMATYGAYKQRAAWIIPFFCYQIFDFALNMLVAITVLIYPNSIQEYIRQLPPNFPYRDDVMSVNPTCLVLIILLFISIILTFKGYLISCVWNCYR

[4] = molecular target: T4, HA-LAPTM4b (lysosomal-associated transmembrane protein 4b, 24-kDa isoform, wild type) (human) (UniProt Q86VI4); test: as above
T4 sequence: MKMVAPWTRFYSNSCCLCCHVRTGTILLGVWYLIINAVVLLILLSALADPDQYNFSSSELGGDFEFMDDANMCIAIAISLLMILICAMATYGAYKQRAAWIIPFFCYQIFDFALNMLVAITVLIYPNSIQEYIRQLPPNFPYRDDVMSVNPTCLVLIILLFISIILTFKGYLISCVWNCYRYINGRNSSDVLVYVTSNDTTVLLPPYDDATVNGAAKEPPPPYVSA

[5] = molecular target: Flag-4F2hc (CD98, SLC3A2) (human) (UniProt P08195); test: co-IP; HeLa cells co-transfected with HA-LAPTM4b and FLAG-LAT1 or FLAG-4F2hc; IP from 1 mg cleared lysate with anti-Flag M2 affinity beads, immunoblot with anti-HA; the interaction was not dependent on amino-acid stimulation (Supplementary Fig. 1e,f)
[6] = molecular target: Flag-LAT1 (SLC7A5) (human) (UniProt Q01650); test: as above
[7] = molecular target: endogenous LAT1 (SLC7A5) (human (endogenous in HeLa)) (UniProt Q01650); test: co-IP; endogenous proteins; IP of LAT1 from 1.5 mg of cleared HeLa cell lysate, immunoblot with anti-LAPTM4b antibodies

binding [4]: no binding
B2: mCherry-ASCT2 (SLC1A5) (protein, UniProt Q15758 1-541)
chain: MVADPPRDSKGLAAAEPTANGGLALASIEDQGAAAGGYCGSRDQVRRCLRANLLVLLTVVAVVAGVALGLGVSGAGGALALGPERLSAFVFPGELLLRLLRMIILPLVVCSLIGGAASLDPGALGRLGAWALLFFLVTTLLASALGVGLALALQPGAASAAINASVGAAGSAENAPSKEVLDSFLDLARNIFPSNLVSAAFRSYSTTYEERNITGTRVKVPVGQEVEGMNILGLVVFAIVFGVALRKLGPEGELLIRFFNSFNEATMVLVSWIMWYAPVGIMFLVAGKIVEMEDVGLLFARLGKYILCCLLGHAIHGLLVLPLIYFLFTRKNPYRFLWGIVTPLATAFGTSSSSATLPLMMKCVEENNGVAKHISRFILPIGATVNMDGAALFQCVAAVFIAQLSQQSLDFVKIITILVTATASSVGAAGIPAGGVLTLAIILEAVNLPVDHISLILAVDWLVDRSCTVLNVEGDALGAGLLQNYVDRTESRSTEPELIQVKSELPLDPLPVPTEEGNPLLKHYRGPAGDATVASEKESVM

binding [5]: binds | binding [6]: binds
B3: HA-LAPTM4b (lysosomal-associated transmembrane protein 4b, 24-kDa isoform, wild type) (protein, UniProt Q86VI4-2 1-226)
chain: T4 sequence

Further lines, the molecule ahead of its results:

Molecule: Flag-4F2hc (CD98, SLC3A2) (from UniProt P08195 1-529)
binding [1]: binds | binding [2]: binds | binding [3]: binds

B1: mCherry-SNAT2 (SLC38A2) (protein, UniProt Q96QD8 1-506)
chain: MKKAEMGRFSISPDEDSSSYSSNSDFNYSYPTKQAALKSHYADVDPENQNFLLESNLGKKKYETEFHPGTTSFGMSVFNLSNAIVGSGILGLSYAMANTGIALFIILLTFVSIFSLYSVHLLLKTANEGGSLLYEQLGYKAFGLVGKLAASGSITMQNIGAMSSYLFIVKYELPLVIQALTNIEDKTGLWYLNGNYLVLLVSLVVILPLSLFRNLGYLGYTSGLSLLCMVFFLIVVICKKFQVPCPVEAALIINETINTTLTQPTALVPALSHNVTENDSCRPHYFIFNSQTVYAVPILIFSFVCHPAVLPIYEELKDRSRRRMMNVSKISFFAMFLMYLLAALFGYLTFYEHVESELLHTYSSILGTDILLLIVRLAVLMAVTLTVPVVIFPIRSSVTHLLCASKDFSWWRHSLITVSILAFTNLLVIFVPTIRDIFGFIGASAASMLIFILPSAFYIKLVKKEPMKSVQKIGALFFLLSGVLVMTGSMALIVLDWVHNAPGGGH
binding [4]: no binding

B4: endogenous LAPTM4b (protein, UniProt Q86VI4 1-317)
chain: MTSRTRVTWPSPPRPLPVPAAAAVAFGAKGTDPAEARSSRGIEEAGPRAHGRAGREPERRRSRQQRRGGLQARRSTLLKTCARARATAPGAMKMVAPWTRFYSNSCCLCCHVRTGTILLGVWYLIINAVVLLILLSALADPDQYNFSSSELGGDFEFMDDANMCIAIAISLLMILICAMATYGAYKQRAAWIIPFFCYQIFDFALNMLVAITVLIYPNSIQEYIRQLPPNFPYRDDVMSVNPTCLVLIILLFISIILTFKGYLISCVWNCYRYINGRNSSDVLVYVTSNDTTVLLPPYDDATVNGAAKEPPPPYVSA
binding [7]: binds
